Laboratory results published in paper PMC4336329 (PLoS ONE, 2015).
In all, about 310,000 compounds went through this assay and about 14,000 (4.5%) showed an effect of 50% or more. The effect is printed as a negative number. This is one part of the list.

Target: human ether-à-go-go-related gene (hERG) potassium channel (human, UniProt Q12809)
Assay: primary screen, population patch clamp on CHO cells stably expressing hERG
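Also: peak tail current of the secondary pulse compared with the same well before compound.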

human ether-à-go-go-related gene (hERG) potassium channel, sequence (Q12809 whole entry, looked up): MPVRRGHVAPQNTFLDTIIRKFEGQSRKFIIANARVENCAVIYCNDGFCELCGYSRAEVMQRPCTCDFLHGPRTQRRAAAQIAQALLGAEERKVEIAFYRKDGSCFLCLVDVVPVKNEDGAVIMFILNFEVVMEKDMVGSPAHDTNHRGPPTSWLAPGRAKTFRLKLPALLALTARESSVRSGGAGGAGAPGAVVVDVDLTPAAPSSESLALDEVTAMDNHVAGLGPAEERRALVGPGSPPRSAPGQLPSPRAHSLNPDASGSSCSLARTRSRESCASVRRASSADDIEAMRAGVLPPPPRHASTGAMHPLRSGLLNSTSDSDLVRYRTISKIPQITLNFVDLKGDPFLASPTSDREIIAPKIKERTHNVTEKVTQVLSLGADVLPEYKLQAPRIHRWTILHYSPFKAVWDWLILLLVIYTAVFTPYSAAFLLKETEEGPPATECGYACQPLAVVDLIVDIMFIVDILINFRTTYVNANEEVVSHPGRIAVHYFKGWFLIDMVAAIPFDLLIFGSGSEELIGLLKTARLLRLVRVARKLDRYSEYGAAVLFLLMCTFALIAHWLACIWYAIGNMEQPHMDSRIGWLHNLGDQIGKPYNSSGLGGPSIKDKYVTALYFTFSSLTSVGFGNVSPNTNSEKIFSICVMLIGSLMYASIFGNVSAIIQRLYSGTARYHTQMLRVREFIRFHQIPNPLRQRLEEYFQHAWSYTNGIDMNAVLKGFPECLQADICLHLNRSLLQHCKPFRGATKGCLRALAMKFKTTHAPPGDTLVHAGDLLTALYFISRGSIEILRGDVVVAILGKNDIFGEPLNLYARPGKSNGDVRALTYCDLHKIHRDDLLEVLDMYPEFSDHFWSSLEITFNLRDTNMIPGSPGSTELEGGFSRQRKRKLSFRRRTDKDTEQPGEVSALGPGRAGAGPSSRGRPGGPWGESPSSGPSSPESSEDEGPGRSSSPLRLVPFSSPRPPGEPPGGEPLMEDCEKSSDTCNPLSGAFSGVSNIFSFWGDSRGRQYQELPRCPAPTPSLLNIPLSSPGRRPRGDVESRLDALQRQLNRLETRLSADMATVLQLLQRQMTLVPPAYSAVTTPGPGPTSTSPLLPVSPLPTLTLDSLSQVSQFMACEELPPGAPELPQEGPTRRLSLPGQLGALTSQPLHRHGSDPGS

| SMILES | hERG current change (%, negative = inhibition) at 10uM [%] |
| --- | --- |
| O=S(=O)(c1ccccc1)N1C2CCC1CC(O)(c1cccnc1)C2 (centres unmarked) | -3.56 |
| CCCCCCn1c(=O)c(C(=O)Nc2cccc(C)n2)c(O)c2ccccc21 | 23.8 |
| CCOc1ccc(C(=S)N2CCOCC2)cc1OC | 10.4 |
| O=C(Nc1ccc2c(c1)OCO2)c1ccc([N+](=O)[O-])cc1[N+](=O)[O-] | 9.76 |
| CCn1cc(C(=O)NCC(=O)NCCCN2CCOCC2)c(=O)c2cc3c(cc21)OCO3 | 18.2 |
| COc1ccccc1N1CCN(C(=O)CSc2nc3ccccc3o2)CC1 | -1.97 |
| O=C(NCCC1=CCCCC1)C1CCC(CNc2c(N3CCCCC3)c(=O)c2=O)CC1 (centres unmarked) | 17.7 |
| CN(C)C(=O)CN1C(=O)NC2(CCCc3ccccc32)C1=O (centres unmarked) | 21.9 |
| CCOC(=O)c1c(/N=C/N(C)C)sc(C)c1C | 8.82 |
| O=[N+]([O-])c1cc([N+](=O)[O-])c(Oc2cccnc2Br)cc1NN1CCCCC1 | 2.25 |
| CCOC(=O)c1cnc2cc(F)c(F)cc2c1N1CCOCC1 | -2.45 |
| Clc1cc(Cl)c2nc(N3CCCC3)sc2c1 | 6.82 |
| COCCN(Cc1nc(-c2ccc(-c3ccccc3)cc2)oc1C)C(C)C | -71.4 |
| CCOC(=O)c1c(C)n(O)c2ccc(Cl)cc2c1=O | 13.9 |
| O=C(CC1(O)C(=O)N(CCc2ccccc2)c2ccccc21)c1ccco1 (centres unmarked) | -12.9 |
| O=C(CNC(=S)NC(=O)c1ccc(Cl)cc1)c1ccccc1 | 9.97 |
| Cc1ccc(CNC(=O)C(=O)NCC2OCCN2S(=O)(=O)c2ccc(Cl)cc2)cc1 (centres unmarked) | -2.85 |
| CCOc1ccccc1NC(=O)C1=C(C)NC(=O)NC1c1cccc(OC)c1OC (centres unmarked) | 14.8 |
| CCOC(=O)C1(CCCc2ccccc2)CCN(C(=O)C2CCCO2)CC1 (centres unmarked) | -25.7 |
| COc1cc(C(=S)N2CCCC2)cc(Cl)c1OCC(=O)Nc1ccc(C)cc1C | -2.37 |
| Cc1ccc(C2(O)CC(C)N(C)CC2C)cc1 (centres unmarked) | 12.6 |
| CCOC(=O)CCC(=O)NNC(=O)COc1ccc(C(C)C)cc1Br | -34.5 |

| SMILES | hERG current change (%, negative = inhibition) at 10uM [%] |
| --- | --- |
| O=C(NCCC1=CCCCC1)NC12CC3CC(CC(C3)C1)C2 | 0.663 |
| CC(C)N1C(=O)N(c2cccc(Cl)c2)C(C)(O)CC1(C)C (centres unmarked) | 17.5 |
| O=C(c1ccccc1)N1CCCCC(Sc2nnc3ccccn23)C1=O (centres unmarked) | 5.24 |
| CCCCNC(=O)CN(CCc1ccccc1)S(C)(=O)=O | -12.6 |
| COc1ccc(-c2nnc(SCc3nnc(-c4ccccc4)o3)n2C)cc1OC | -54.3 |
| Cc1ccc(OCCC(=O)OC(C)C(=O)NC2CC2)cc1 (centres unmarked) | 11.8 |
| CC(=O)Nc1cc(C(=O)NCc2ccco2)ccc1Sc1ccc(Cl)cc1 | -35.6 |
| COc1cc(-c2nc(-c3ccc(NC(=O)c4ccc5c(c4)OCO5)cc3)no2)cc(OC)c1OC | 14.3 |
| O=C(Cn1nc(C(F)(F)F)cc1C1CC1)NCc1ccccc1F | -3.07 |
| C=Cn1ccnc1P(=S)(c1cc(N(CC)CC)ns1)c1nccn1C=C | 3.74 |
| CCOc1ncccc1C(=O)OCC(=O)Nc1ccc(S(=O)(=O)N2CCCC2)cc1 | -11.6 |
| CC1(C)Cc2c(sc3c2c(=N)n(Cc2ccco2)c(=O)n3Cc2ccccc2)CO1 | -12.5 |
| O=C(CSc1n[nH]c(-c2ccco2)n1)Nc1sc2c(c1C(=O)Nc1ccccc1)CCCC2 | -41 |
| O=C(c1ccc2[nH]c(=O)c(=O)[nH]c2c1)N1CCN(c2ccccc2)CC1 | -0.599 |
| COC(=O)CN1C(c2ccc(OC)cc2)=Nc2ccc(Cl)cc2C1c1ccccc1 (centres unmarked) | -33.7 |
| COc1cc(SC)ccc1C(=O)OCc1nc2ccsc2c(=O)[nH]1 | -30.6 |
| CC(=O)c1cccc(NC(=O)CCC2CCCC2)c1 | 0.483 |
| CCn1c(=O)c2c(nc(SCC(=O)N3CCCC(C)C3)n2C)n(C)c1=O (centres unmarked) | 8.52 |
| Cc1ccc(S(=O)(=O)CCC(=O)OCC(=O)c2cc(C)ccc2C)cc1 | 5.74 |
| O=C(CN1C(=O)COc2ccc(S(=O)(=O)N3CCCCC3)cc21)NCc1ccc(F)cc1 | 30.8 |
| CN(C)CCOC(=O)CC12CC3CC(C1)CC(CC(=O)OCCN(C)C)(C3)C2.Cl | 12.4 |
| O=C(Nc1ccc(Br)c(Cl)c1)c1ccco1 | -5.17 |

| SMILES | hERG current change (%, negative = inhibition) at 10uM [%] |
| --- | --- |
| CC(C)c1ccc(S(=O)(=O)N2CCN(C(=O)c3ccc(N4CCCC4)c([N+](=O)[O-])c3)CC2)cc1 | -55.1 |
| O=[N+]([O-])c1ccc(O)c(/C=N/Nc2ncnc3c2cnn3-c2ccccc2)c1 | 22.7 |
| O=C(CSc1nnc(C2CC2)n1C1CC1)c1ccc(F)cc1 | 0.657 |
| COc1ccc(N2CCN(C(=O)CC(C)S(=O)(=O)c3ccc4c(c3)NC(=O)CO4)CC2)cc1 (centres unmarked) | -8.12 |
| O=C(Oc1ccccc1F)c1ccc2c(=O)n3c(nc2c1)CCC3 | -15.5 |
| COCCNC(=O)C1CC(c2ccc(F)cc2)=NO1 (centres unmarked) | 9.3 |
| CN(Cc1nc(-c2ccc(Cl)cc2)no1)C(=O)c1ccco1 | -8.47 |
| O=C(NCc1cc(C(F)(F)F)cc(C(F)(F)F)c1)C1CC(c2cccc(F)c2)=NO1 (centres unmarked) | -3.05 |
| CN1CCN(CC(=O)O)CC1 | 9.84 |
| Cc1ccccc1NS(=O)(=O)c1ccc(OCC(=O)N2CCCC2)cc1 | -6.57 |
| O=C(Nc1ccc(Oc2ccc(C(F)(F)F)cn2)c(Cl)c1)C1CC1 | 18.6 |
| Cc1cc(C)c(NC(=O)COC(=O)c2c(C)noc2C)c(Cl)c1 | 13.8 |
| Cc1nc2c(C(=O)N3CCCCC3)cnn2c(C)c1Cc1ccccc1F | -32.1 |
| COc1cccc(CNC(=O)CSc2nc(=O)n(Cc3ccncc3)c3c2CCC3)c1 | -2.74 |
| CC(C)c1ccc(/C=N/NC(=O)c2cc(-c3cccc([N+](=O)[O-])c3)n[nH]2)cc1 | 11 |
| O=C1C(Nc2ccccc2)=C(N2CCCCC2)C(=O)c2ccccc21 | 1.85 |
| CC(=O)Nc1ccc(NC(=O)C(C)OC(=O)c2ccccc2C(=O)c2ccc(Cl)c([N+](=O)[O-])c2)cc1 (centres unmarked) | -7.67 |
| CN(C)/C=C/C(=O)c1ccc(OCCN(C)c2ccccn2)cc1 | 3.55 |
| Cn1c2ccccc2c2cnn(CC(=O)Nc3ccc(F)cc3F)c(=O)c21 | -4.39 |
| Cc1nc2nc(SCC(=O)N3CCOCC3)nn2c(C)c1Cc1c(F)cccc1Cl | -38.3 |
| COc1ccc([N+](=O)[O-])cc1NC1CCCCC1.O=C(O)C(=O)O | -2.1 |
| Cc1cc(C)cc(N(CC(=O)N2CC=C(c3ccccc3)CC2)S(=O)(=O)c2c(C)noc2C)c1 | 3.05 |

| SMILES | hERG current change (%, negative = inhibition) at 10uM [%] |
| --- | --- |
| Cc1ccc(NC(=O)c2ccc3ccccc3n2)cc1S(=O)(=O)N(C)C | 6.21 |
| N#CC1(NC(=O)COc2cccnc2[N+](=O)[O-])CCCCC1 | 7.48 |
| Cc1nc(C)c(C(=O)N2CCCC(CCC(=O)NCc3ccc(F)c(F)c3)C2)s1 (centres unmarked) | 2.68 |
| Cc1ccc(NC(=O)C2CCN(S(=O)(=O)c3ccc4c(c3)C(C)(C)C(=O)N4C)CC2)c(C)c1 | 19.2 |
| O=C(N/N=C/c1ccccn1)c1c[nH]c2ccccc12 | 12.7 |
| O=C(Cc1ccccc1F)NC1CCCc2ccccc21 (centres unmarked) | 10.8 |
| Cn1c(CCN2CCCCC2)nc2cc(NC(=O)COc3ccc(Cl)cc3)ccc21 | -84.8 |
| Cc1nc2ccccc2cc1C(=O)NCc1ccccc1 | 2.49 |
| COc1cc(NC(=O)C2CCN(S(=O)(=O)c3cccs3)CC2)cc(OC)c1 | 1.97 |
| O=C(Nc1ccc(Cc2ccncc2)cc1)c1ccco1 | -12.3 |
| CC1C(=O)Nc2ccc(S(=O)(=O)NCc3ccc(Cl)cc3)cc2NC1=O (centres unmarked) | 16.8 |
| Cn1c2ccc(F)cc2c2nnc(SCC(=O)Nc3cccc(O)c3)nc21 | -19 |
| Cc1nccn1CC(=O)N/N=C/c1ccc(O)c(O)c1 | 2.01 |
| CCOc1cc(CN2CCC(CO)(Cc3cccc(C(F)(F)F)c3)CC2)ccc1OC | -76.6 |
| CC(C)(O)C#Cc1ccc(C(=O)N2CCCC2C(=O)O)s1 (centres unmarked) | 16.9 |
| C=CCOc1c(Br)cc(/C=C2\SC(=Nc3ccccc3)NC2=O)cc1OC | 10.2 |
| O=c1ccc2cc(S(=O)(=O)NCCCc3ccccc3)ccc2[nH]1 | 2.26 |
| NC(=S)N/N=C/c1ccccc1OC(=O)c1cc2ccccc2oc1=O | 28.3 |
| Cc1cc(C)cc(N2CC(C)Cn3c2nc2c3c(=O)[nH]c(=O)n2C)c1 (centres unmarked) | -2.03 |
| O=[N+]([O-])c1ccc(Oc2cccc(F)c2)c2ccncc12 | -1.75 |
